From PubChem BioAssay AID1466 (National Center for Advancing Translational Sciences (NCATS), 2008)
Hit rate of the full screen: of about 200,000 compounds, about 10 (0.005%) were called active. The inconclusive results got no clear call from the source; some entries with a clear call stand among them for comparison. The call rests on the fitted dose curve; in most records, active means well fitted inhibition curve with a large enough effect; inconclusive means small, poorly fitted or top-dose-only effect, or effect the other way, or another doubt; inactive means no such curve, though single readings can be large or run the other way. Potencies of inconclusive entries are left out as doubtful fits.

molecular target: Lysosomal alpha-glucosidase (Homo sapiens) (UniProt P10253); assay: qHTS Assay for Inhibitors of Human alpha-Glucosidase as a Potential Chaperone Treatment of Pompe Disease; conditions: purified human GAA, 4-MU-alpha-glucoside fluorescence; activity change, negative = inhibition: at 76.9 µM (top of the series) unless noted;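 on activity change, negative = inhibition: plate controls were uninhibited enzyme wells for no effect and no-enzyme background for full effect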
Outline: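 AC50 values come from Hill fits of compound titrations (up to 77 uM) against 4 nM human enzyme. Substrate 4-methylumbelliferyl-alpha-D-pyranoside at 400 uM, pH 5.0 citrate buffer, 20 min room temperature; fluorescence Ex 365/Em 440 after alkaline stop.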
Potency means the concentration at half of the fitted maximal effect; tags describe the fitted curve by direction and shape.

SMILES | activity change, negative = inhibition | Potency
c1ccc2c(c1)nnn1c3ccccc3nc21 | inactive: 10.5% | –
OCC1CCCN(C(=S)Nc2ccc(Nc3ccccc3)cc2)C1 (stereo unspecified) | inactive: -11.7% | –
N#Cc1c(NC(=O)CSc2ncn[nH]2)sc2c1CCCC2 | – | inconclusive [inhibitor, single point]
CCC(=O)N1CCc2cc(S(=O)(=O)Nc3ccc4c(c3)OCCO4)ccc21 | inconclusive: -16% [inhibitor] | –
Nc1c(-c2ccc(F)cc2)cnn1C1CCS(=O)(=O)C1 (stereo unspecified) | – | inconclusive [inhibitor, single point]
COc1ccc(N=C2CC(C)(C)CC(=O)/C2=C(/O)c2ccccc2)cc1 | inconclusive: 6.96% [activator] | –
Cc1ccc2[nH]c(C)c(/C=N/Nc3nc4ccccc4s3)c2c1 | inactive: -1.48% | –
Cc1c(NC(=S)N/N=C/c2ccc(O)cc2)c(=O)n(-c2ccccc2)n1C | – | inconclusive [activator, single point]
CC(=O)Nc1nnc(SCC(=O)NC(C)(C)C)s1 | inconclusive: 16.7% [activator] | –
COc1ccc(OCC(=O)N/N=C/c2ccc(N(C)C)cc2)cc1 | – | inconclusive [activator, partial curve]
O=C(CN(Cc1ccco1)C(=O)Cn1nnc(-c2cccs2)n1)NCC1CCCO1 (stereo unspecified) | – | inconclusive [inhibitor, single point]
CC(C)CNC(=O)c1cccc(NC(=O)c2ccc(Cl)c([N+](=O)[O-])c2)c1 | – | inconclusive [inhibitor, full curve, poor fit]
CC(C)COc1ccc(CSCCNC(=S)Nc2ccccc2)cc1 | – | inconclusive [inhibitor, partial curve]
CC1Cc2nc(SCC(=O)Nc3ccc4c(c3)OCO4)n(Cc3ccccc3)c(=O)c2S1 (stereo unspecified) | inconclusive: -16.7% [inhibitor] | –
Cc1ccc(C(=O)CCC2CCCCC2=O)cc1 (stereo unspecified) | – | inconclusive [inhibitor, single point]
Cn1nnnc1NCc1ccc(Cl)c(Cl)c1 | – | inconclusive [inhibitor, single point]
CCN(CC)CCNC(=O)C(=O)NCC1OCCN1S(=O)(=O)c1ccc([N+](=O)[O-])cc1 (stereo unspecified) | – | inconclusive [inhibitor, partial curve]
COc1nc(-c2ccccc2)cc(-c2ccc3c(c2)OCO3)c1C#N | – | inconclusive [activator, single point]
O=[N+]([O-])c1ccccc1Oc1ccc(Cl)c2cccnc12 | – | inconclusive [inhibitor, single point]
O=C(CCc1ccccc1)Nc1ccc(S(=O)(=O)N2CCCC2)cc1 | – | inconclusive [inhibitor, partial curve]
O=C(O)c1cc([N+](=O)[O-])ccc1NCc1ccccc1 | – | inconclusive [inhibitor, single point]
CC1(C)CC(=O)C(C=NCCN2CCN(C(=S)Nc3cccc(Cl)c3)CC2)=C(O)C1 | – | inconclusive [activator, single point]

SMILES | activity change, negative = inhibition | Potency
O=c1c(O)c(-c2ccc(O)cc2O)oc2cc(O)cc(O)c12 | inactive: -0.004% [at 15.4 µM] | –
CCn1c(SCC(=O)Nc2ccc(-c3nc4ccc(C)cc4s3)cc2)nnc1-c1ccccc1 | – | inconclusive [activator, single point]
CN(CCOc1ccc(Cl)cc1)c1ccc(S(=O)(=O)N2CCCCC2)cn1 | inactive: 0.398% | –
O=C1/C(=C/c2ccccn2)SC(=S)N1N1CCOCC1 | – | inconclusive [inhibitor, single point]
O=C(N/N=C/c1ccc2ccccc2c1)c1ccc(COc2ccc3c(c2)CCC3)o1 | inconclusive: 16.6% [activator] | –
Cc1ccc(-c2[nH]c(=S)[nH]c(=O)c2C#N)cc1 | inconclusive: 14.8% [activator] | –
N#C/C(=C(/O)CSc1ccccn1)c1nc2ccccc2s1 | – | inconclusive [inhibitor, single point]
S=C(NCC1COc2ccccc2O1)Nc1ccc(Br)cc1 (stereo unspecified) | – | inconclusive [inhibitor, single point]
S=c1[nH]nc(Cc2ccccc2)n1-c1ccc(Cl)cc1 | – | inconclusive [activator, full curve, poor fit]
Cc1ccc(C(=O)N/C(=C\c2ccc3c(c2)OCO3)C(=O)Nc2ccc(C(=O)O)cc2)cc1 | – | inconclusive [activator, partial curve]
CN1/C(=C/C(=O)c2nc(S(C)(=O)=O)ncc2Cl)C(C)(C)c2ccccc21 | – | inconclusive [inhibitor, partial curve]
Cn1c(=O)[nH]c(=O)c2c1nc(CN1CCN(c3cccc(Cl)c3)CC1)n2CCN1CCOCC1 | – | inconclusive [inhibitor, full curve, poor fit]
O=C(NC1CCCC1)C(c1ccc(N2CCOCC2)cc1)N(C(=O)c1ccco1)c1ccccc1F (stereo unspecified) | inconclusive: 16.6% [activator] | –
COc1ccc2cc(-c3cc(C(=O)OCC(=O)NC4CCS(=O)(=O)C4)c4ccccc4n3)ccc2c1 (stereo unspecified) | inconclusive: 5.44% [activator] | –
Cn1c(N2CCC(C(N)=O)CC2)nc2c1c(=O)n(Cc1ccc(Cl)cc1)c(=O)n2C | – | inconclusive [inhibitor, partial curve, poor fit]
CC(C)(C)c1cc(CN2CCCC(O)C2)c(O)c(C(C)(C)C)c1 (stereo unspecified) | – | inconclusive [inhibitor, single point]
Cc1cc(N=Cc2c(O)n(-c3cccc(C(F)(F)F)c3)c(=O)c3ccccc23)no1 | inactive: 0.491% | –
CC1=C(C#N)C(c2cccnc2)C2=C(CCCC2=O)N1 (stereo unspecified) | – | inconclusive [activator, partial curve]
CC(C)(C)CN1CCNC(=O)C1CC(=O)N1CCC(C(=O)N2CCOCC2)CC1 (stereo unspecified) | inconclusive: 11.6% [activator] | –
CCOc1ccc(C2C(C(=O)OC)=CN(CCOC)C=C2C(=O)OC)cc1 | – | inconclusive [activator, partial curve]
Cc1nc2ccccn2c1C(=O)NN=C1C2CC3CC(C2)CC1C3 | inactive: -5.26% | –
Cc1ccc(-c2nn3c(C)nnc3s2)cc1NC(=O)c1ccc(-c2ccc(Cl)cc2Cl)o1 | – | inconclusive [activator, single point]

SMILES | activity change, negative = inhibition | Potency
CC1CCN(c2nc3ccc(C(=O)N4CCN(Cc5ccc6c(c5)OCO6)CC4)cc3s2)CC1 | inconclusive: -17.4% [inhibitor] | –
COc1cccc2sc(N(CCN(C)C)C(=O)/C=C/c3cccs3)nc12 | – | inconclusive [inhibitor, single point]
Cc1nc(SCc2cccc(C(=O)O)c2)nc2c1CCCC2 | inconclusive: 20.6% [activator] | –
CCCCNC(=O)c1cc2nc3c(c(C(F)(F)F)n2n1)CCc1ccccc1-3 | inconclusive: 18.6% [activator] | –
CC(=O)Nc1ccc(S(=O)(=O)N2CCN(CC(O)COc3ccc4ccccc4c3)CC2)cc1 (stereo unspecified) | – | inconclusive [inhibitor, single point]
CC(C)NC(=S)NC(=O)c1ccc(-c2ccccc2)cc1 | – | inconclusive [inhibitor, full curve]
CC1(C)NC(=O)N(CCCCOc2ccc3ccccc3c2Cl)C1=O | – | inconclusive [inhibitor, single point]
O=C(COC(=O)C1(c2ccccc2F)CCCC1)NCc1cccs1 | – | inconclusive [activator, full curve, poor fit]
Nc1ccccc1C(=O)Nc1nccs1 | – | inconclusive [activator, partial curve]
O=C(C1CCCCN1S(=O)(=O)c1ccccc1)N1CCN(Cc2ccccc2)CC1 (stereo unspecified) | – | inconclusive [inhibitor, single point]
CC[N+](CC)(CC=C(C)C)CC(=O)OC | inconclusive: 6.01% [activator] | –
CCOC(=O)Cn1nnnc1C(CC)N(Cc1cc2ccc(C)cc2[nH]c1=O)C1CCCC1 (stereo unspecified) | – | inconclusive [inhibitor, full curve]
O=C(Cn1cnc2ccccc21)Nc1cc(C(F)(F)F)ccc1N1CCOCC1 | – | inconclusive [inhibitor, partial curve, poor fit]
Cc1ccc2ccccc2[n+]1CCCS(=O)(=O)[O-] | – | inconclusive [inhibitor, full curve, poor fit]
Cc1cc(Cl)ccc1C(=O)C1CCCN(C(=O)c2n[nH]c3c2CCCC3)C1 (stereo unspecified) | inconclusive: -16.9% [inhibitor] | –
FC(F)(F)c1cc(-c2cccs2)nc2ncnn12 | – | inconclusive [activator, partial curve]
COc1ccnc(N2CCN(c3ccc(Cl)cc3)CC2)c1C#N | – | inconclusive [inhibitor, single point]
O=C(NC(CCl)c1ccccc1)c1ccc(Cl)cc1 (stereo unspecified) | – | inconclusive [inhibitor, single point]
Cc1noc(C)c1C(=O)N1CCN(CCc2ccccc2)CC1 | inconclusive: -16.9% [inhibitor] | –
O=C(Nc1ccc(O)cc1)c1cccc(Oc2ccc([N+](=O)[O-])cc2)c1 | inconclusive: 15.8% [activator] | –
CC(Sc1nnnn1C)C(=O)NC(=O)NC1CCCCC1 (stereo unspecified) | – | inconclusive [inhibitor, single point]
CCc1nnc(NC(=O)CSc2nnc(-c3c[nH]c4ccccc34)n2C)s1 | – | inconclusive [inhibitor, partial curve]
